Test [1] concerns the target T1, human CD3 (human, UniProt P07766 23-126; P04234 22-105).
T1 construct: also called His-tagged human CD3; human CD3 (Acro CDD-H52W1)
As to the kind of experiment: BLI (Octet), binder on AHC sensor, 100 nM human CD3, 1:1 fit. For orientation: In BLI a coated tip is dipped into the sample, and binding shifts an interference pattern.

Another test deals with T2, human EGFR (human, UniProt P00533 partial chain, limits assumed).
T2 construct: Soluble antigen in Octet; construct not described
The test is described as follows: BLI (Octet), binder on AHC sensor, 200 nM human EGFR, 1:1 fit.

Test [2] addresses T3, human PD-L1 (human, UniProt Q9NZQ7 partial chain).
T3 construct: Soluble antigen in Octet; bought; also called human PD-L1 (Acro PD1-H5229)
As to the kind of experiment: BLI (Octet), binder on AHC sensor, 20 nM human PD-L1, 1:1 fit.

Another test addresses T4, human HER3 (human, UniProt P21860 partial chain).
T4 construct: Soluble antigen in Octet; bought; also called human HER3 (Acro ER3-H5223)
The test is described as follows: BLI (Octet), binder on AHC sensor, 200 nM human HER3, 1:1 fit.

For the next test, the target named is T5, human 4-1BB (human, UniProt Q07011 24-186, limits assumed).
T5 construct: Soluble antigen in Octet; construct not described
The test is described as follows: BLI (Octet), binder on AHC sensor, 400 nM human 4-1BB, 1:1 fit.

Test [3] deals with T3, human PD-L1. The test is described as follows: BLI (Octet); conditions not stated.
The target in a further test is T6, CD19 (UniProt P15391 20-291, limits assumed).
T6 sequence (looked up): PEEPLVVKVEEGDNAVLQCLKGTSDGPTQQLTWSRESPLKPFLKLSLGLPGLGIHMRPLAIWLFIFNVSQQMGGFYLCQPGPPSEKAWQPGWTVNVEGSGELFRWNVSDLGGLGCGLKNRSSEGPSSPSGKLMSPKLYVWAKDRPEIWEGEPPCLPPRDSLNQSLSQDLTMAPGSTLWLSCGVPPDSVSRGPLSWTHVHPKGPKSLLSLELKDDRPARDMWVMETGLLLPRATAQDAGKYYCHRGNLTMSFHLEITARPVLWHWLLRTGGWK
As to the kind of experiment: BLI (Octet); conditions not stated.

Test [4] concerns the target T1, human CD3. The test is described as follows: BLI (Octet); conditions not stated.
In a further test the target is NKG2D ligand. As to the kind of experiment: BLI (Octet); conditions and ligand not stated.

T1 sequence (P07766 23-126, chain 1 of 2): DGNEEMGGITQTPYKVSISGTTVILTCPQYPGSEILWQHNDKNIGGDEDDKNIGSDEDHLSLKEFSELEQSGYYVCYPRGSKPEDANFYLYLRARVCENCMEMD
T1 sequence (P04234 22-105, chain 2 of 2, further chain): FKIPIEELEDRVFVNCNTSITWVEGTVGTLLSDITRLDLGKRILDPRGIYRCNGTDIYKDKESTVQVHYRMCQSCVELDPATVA
T3 sequence (Q9NZQ7 19-238 limits assumed): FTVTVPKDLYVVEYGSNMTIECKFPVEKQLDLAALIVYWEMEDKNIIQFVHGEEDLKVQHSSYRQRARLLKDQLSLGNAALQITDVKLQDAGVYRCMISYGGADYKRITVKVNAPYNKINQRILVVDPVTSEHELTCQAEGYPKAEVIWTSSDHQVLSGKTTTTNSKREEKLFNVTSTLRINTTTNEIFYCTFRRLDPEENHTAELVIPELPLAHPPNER
Chain of human 4-1BB (Q07011 24-186 limits assumed): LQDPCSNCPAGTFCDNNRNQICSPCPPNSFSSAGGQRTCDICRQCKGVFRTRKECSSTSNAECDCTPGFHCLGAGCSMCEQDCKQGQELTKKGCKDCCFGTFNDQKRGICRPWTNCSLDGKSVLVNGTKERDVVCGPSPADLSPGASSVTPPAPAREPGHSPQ

B1: SI-68E2 (other)
chain 1: DIQMTQSPSSLSASVGDRVTITCQASQDISNYLNWYQQKPGKAPKLLIYDASNLETGVPSRFSGSGSGTDFTFTISSLQPEDIATYFCQHFDHLPLAFGCGTKVEIKGGGGSGGGGSGGGGSGGGGSQVQLQESGPGLVKPSETLSLTCTVSGGSVSSGDYYWTWIRQSPGKCLEWIGHIYYSGNTNYNPSLKSRLTISIDTSKTQFSLKLSSVTAADTAIYYCVRDRVTGAFDIWGQGTMVTVSTGGGGSGGGGSEVQLVESGGGLVQPGGSLRLSCAASGFTISTNAMSWVRQAPGKGLEWIGVITGRDITYYASWAKGRFTISRDNSKNTLYLQMNSLRAEDTAVYYCARDGGSSAITSNNIWGQGTLVTVSSASTKGPSVFPLAPSSKSTSGGTAALGCLVKDYFPEPVTVSWNSGALTSGVHTFPAVLQSSGLYSLSSVVTVPSSSLGTQTYICNVNHKPSNTKVDKRVEPKSCDKTHTCPPCPAPEAAGGPSVFLFPPKPKDTLMISRTPEVTCVVVDVSHEDPEVKFNWYVDGVEVHNAKTKPREEQYASTYRVVSVLTVLHQDWLNGKEYKCAVSNKALPAPIEKTISKAKGQPREPQVCTLPPSRDELTKNQVSLSCAVKGFYPSDIAVEWESNGQPENNYKTTPPVLDSDGSFFLVSKLTVDKSRWQQGNVFSCSVMHEALHNHYTQKSLSLSPGK
chain 2: QSALTQPASVSGSPGQSITISCTGTSSDVGGYNFVSWYQQHPGKAPKLMIYDVSDRPSGVSDRFSGSKSGNTASLIISGLQADDEADYYCSSYGSSSTHVIFGCGTKVTVLGGGGSGGGGSGGGGSGGGGSQVQLQESGGGLVKPGGSLRLSCAASGFTFSSYWMSWVRQAPGKCLEWVANINRDGSASYYVDSVKGRFTISRDDAKNSLYLQMNSLRAEDTAVYYCARDRGVGYFDLWGRGTLVTVSTGGGGSGGGGSDVVMTQSPSTLSASVGDRVTINCQASESISSWLAWYQQKPGKAPKLLIYEASKLASGVPSRFSGSGSGTEFTLTISSLQPDDFATYYCQGYFYFISRTYVNSFGGGTKVEIKRTVAAPSVFIFPPSDEQLKSGTASVVCLLNNFYPREAKVQWKVDNALQSGNSQESVTEQDSKDSTYSLSSTLTLSKADYEKHKVYACEVTHQGLSSPVTKSFNRGECGG[human IgG1 Fc with L234A L235A N297A K322A S354C T366W (EU numbers) cut from this listing]GGGGSGGGGSEVQLLESGGGLVQPGGSLRLSCAASGFSFSSGYDMCWVRQAPGKCLEWIACIAAGSAGITYDANWAKGRFTISRDNSKNTLYLQMNSLRAEDTAVYYCARSAFSFDYAMDLWGQGTLVTVSSGGGGSGGGGSGGGGSGGGGSDIQMTQSPSTLSASVGDRVTITCQASQSISSHLNWYQQKPGKAPKLLIYKASTLASGVPSRFSGSGSGTEFTLTISSLQPDDFATYYCQQGYSWGNVDNVFGCGTKVEIK
notes: tetra-miniGNC, all scFv stapled; D1 αEGFR*, D2 αHER3, D3 αCD3 (Fab), D5 αPD-L1
One may read the Kd as a measure of binding affinity in units of concentration. Read a low Kd as higher affinity. Consider B1, for which the Kd is 28.4 nM in the test with human CD3 [1], less than 0.001 nM in the test with human EGFR, 0.4 nM with human PD-L1 [2] and 120 nM with human HER3.

B2: SI-68P1 (other)
chain 1: DIQMTQSPSSLSASVGDRVTITCQASQDISNYLNWYQQKPGKAPKLLIYDASNLETGVPSRFSGSGSGTDFTFTISSLQPEDIATYFCQHFDHLPLAFGCGTKVEIKGGGGSGGGGSGGGGSGGGGSQVQLQESGPGLVKPSETLSLTCTVSGGSVSSGDYYWTWIRQSPGKCLEWIGHIYYSGNTNYNPSLKSRLTISIDTSKTQFSLKLSSVTAADTAIYYCVRDRVTGAFDIWGQGTMVTVSTGGGGSGGGGSEVQLVESGGGLVQPGGSLRLSCAASGFTISTNAMSWVRQAPGKGLEWIGVITGRDITYYASWAKGRFTISRDNSKNTLYLQMNSLRAEDTAVYYCARDGGSSAITSNNIWGQGTLVTVSSASTKGPSVFPLAPSSKSTSGGTAALGCLVKDYFPEPVTVSWNSGALTSGVHTFPAVLQSSGLYSLSSVVTVPSSSLGTQTYICNVNHKPSNTKVDKRVEPKSCDKTHTCPPCPAPEAAGGPSVFLFPPKPKDTLMISRTPEVTCVVVDVSHEDPEVKFNWYVDGVEVHNAKTKPREEQYASTYRVVSVLTVLHQDWLNGKEYKCAVSNKALPAPIEKTISKAKGQPREPQVCTLPPSRDELTKNQVSLSCAVKGFYPSDIAVEWESNGQPENNYKTTPPVLDSDGSFFLVSKLTVDKSRWQQGNVFSCSVMHEALHNHYTQKSLSLSPGGGGGSGGGGSRSLVESGGGLVQPGGSLRLSCTASGFTISSYHMQWVRQAPGKCLEYIGTISSGGNVYYASSARGRFTISRPSSKNTVDLQMNSLRAEDTAVYYCARDSGYSDPMWGQGTLVTVSSGGGGSGGGGSGGGGSGGGGSDVVMTQSPSSVSASVGDRVTITCQASQNIRTYLSWYQQKPGKAPKLLIYAAANLASGVPSRFSGSGSGTDFTLTISDLEPGDAATYYCQSTYLGTDYVGGAFGCGTKVEIK
chain 2: QSALTQPASVSGSPGQSITISCTGTSSDVGGYNFVSWYQQHPGKAPKLMIYDVSDRPSGVSDRFSGSKSGNTASLIISGLQADDEADYYCSSYGSSSTHVIFGCGTKVTVLGGGGSGGGGSGGGGSGGGGSQVQLQESGGGLVKPGGSLRLSCAASGFTFSSYWMSWVRQAPGKCLEWVANINRDGSASYYVDSVKGRFTISRDDAKNSLYLQMNSLRAEDTAVYYCARDRGVGYFDLWGRGTLVTVSTGGGGSGGGGSDVVMTQSPSTLSASVGDRVTINCQASESISSWLAWYQQKPGKAPKLLIYEASKLASGVPSRFSGSGSGTEFTLTISSLQPDDFATYYCQGYFYFISRTYVNSFGGGTKVEIKRTVAAPSVFIFPPSDEQLKSGTASVVCLLNNFYPREAKVQWKVDNALQSGNSQESVTEQDSKDSTYSLSSTLTLSKADYEKHKVYACEVTHQGLSSPVTKSFNRGECGG[human IgG1 Fc with L234A L235A N297A K322A S354C T366W (EU numbers) cut from this listing]GGGGSGGGGSEVQLLESGGGLVQPGGSLRLSCAASGFSFSSGYDMCWVRQAPGKCLEWIACIAAGSAGITYDANWAKGRFTISRDNSKNTLYLQMNSLRAEDTAVYYCARSAFSFDYAMDLWGQGTLVTVSSGGGGSGGGGSGGGGSGGGGSDIQMTQSPSTLSASVGDRVTITCQASQSISSHLNWYQQKPGKAPKLLIYKASTLASGVPSRFSGSGSGTEFTLTISSLQPDDFATYYCQQGYSWGNVDNVFGCGTKVEIK
notes: penta-miniGNC, all scFv stapled; D1 αEGFR*, D2 αHER3, D3 αCD3 (Fab), D4 α4-1BB, D5 αPD-L1; also called penta-miniGNC (SI-68P1)
For the molecule B2, the Kd in the test with human CD3 [1] was 24.3 nM; in the test with human EGFR, less than 0.001 nM; with human 4-1BB, 9.8 nM; with human PD-L1 [2] it was 0.6 nM; in the test with human HER3 it was 93.4 nM.

B3: SI-49P_X (other)
chain 1: EIVMTQSPSTLSASVGDRVIITCQASESISSWLAWYQQKPGKAPKLLIYEASKLASGVPSRFSGSGSGAEFTLTISSLQPDDFATYYCQGYFYFISRTYVNSFGCGTKLTVLGSTGSGSKPGSGEGSTKGEVQLVESGGGLVQPGGSLRLSCTASGFTISTNAMSWVRQAPGKCLEWVGVITGRDITYYASWAKGRFTISRDTSKNTVYLQMNSLRAEDTAVYYCARDGGSSAITSNNIWGQGTLVTVSTGGGGSGGGGSFLNSLFNQEVQIPLTESYCGPCPKNWICYKNNCYQFFDESKNWYESQASCMSQNASLLKVYSKEDQDLLKLVKSYHWMGLVHIPTNGSWQWEDGSILSPNLLTIIEMQKGDCALYASSFKGYIENCSTPNTYICMQRTVASTKGPSVFPLAPSSKSTSGGTAALGCLVKDYFPEPVTVSWNSGALTSGVHTFPAVLQSSGLYSLSSVVTVPSSSLGTQTYICNVNHKPSNTKVDKRVEPKSCDKTHTCPPCPAPEAAGGPSVFLFPPKPKDTLMISRTPEVTCVVVDVSHEDPEVKFNWYVDGVEVHNAKTKPREEQYASTYRVVSVLTVLHQDWLNGKEYKCAVSNKALPAPIEKTISKAKGQPREPQVCTLPPSRDELTKNQVSLSCAVKGFYPSDIAVEWESNGQPENNYKTTPPVLDSDGSFFLVSKLTVDKSRWQQGNVFSCSVMHEALHNHYTQKSLSLSPG
chain 2: ENVLTQSPASLSASPGERVTITCSASSSVSYMHWYQQKPGQAPKLWIYDTSKLASGVPSRFSGSGSGNDHTLTISSMEPEDFATYYCFQGSVYPFTFGQGTKLEIKGSTGSGSKPGSGEGSTKGQVTLKESGPGLVQPGQTLRLTCAFSGFSLSTSGMGVGWIRQPPGKGLEWLAHIWWDDDKRYNPALKSRLTISKDTSKNQVYLQMNSLDAEDTAVYYCARMELWSYYFDYWGQGTLVTVSTGGGGSGGGGSFLNSLFNQEVQIPLTESYCGPCPKNWICYKNNCYQFFDESKNWYESQASCMSQNASLLKVYSKEDQDLLKLVKSYHWMGLVHIPTNGSWQWEDGSILSPNLLTIIEMQKGDCALYASSFKGYIENCSTPNTYICMQRTVRTVAAPSVFIFPPSDEQLKSGTASVVCLLNNFYPREAKVQWKVDNALQSGNSQESVTEQDSKDSTYSLSSTLTLSKADYEKHKVYACEVTHQGLSSPVTKSFNRGECGG[human IgG1 Fc with L234A L235A N297A K322A S354C T366W (EU numbers) cut from this listing]GGGGSGGGGSEVQLLESGGGLVQPGGSLRLSCAASGFSFSSGYDMCWVRQAPGKCLEWIACIAAGSAGITYDANWAKGRFTISRDNSKNTLYLQMNSLRAEDTAVYYCARSAFSFDYAMDLWGQGTLVTVSSGGGGSGGGGSGGGGSGGGGSDIQMTQSPSTLSASVGDRVTITCQASQSISSHLNWYQQKPGKAPKLLIYKASTLASGVPSRFSGSGSGTEFTLTISSLQPDDFATYYCQQGYSWGNVDNVFGCGTKVEIK
notes: tetra-miniGNC; D1 αCD3, D2 αCD19, D3 NKG2D receptor dimer, D5 αPD-L1
Take B3: the Kd with human PD-L1 [3] is 0.2 nM; with CD19, 1.31 nM; in the test with human CD3 [4] it was 30.4 nM; with NKG2D ligand it was 10.4 nM.

These data come from patent US20230114801A1 (SYSTIMMUNE, published 2023).
